The text below walks through data of paper PMC6984821.

Sequences of proteins named here, by UniProt entry; tags and fusion partners are left off.
UniProt P03081: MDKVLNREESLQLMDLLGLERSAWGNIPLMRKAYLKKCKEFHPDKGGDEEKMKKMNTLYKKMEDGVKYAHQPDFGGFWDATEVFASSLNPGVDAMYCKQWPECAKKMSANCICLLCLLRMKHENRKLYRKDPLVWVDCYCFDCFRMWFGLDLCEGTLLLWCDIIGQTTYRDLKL
UniProt P03083: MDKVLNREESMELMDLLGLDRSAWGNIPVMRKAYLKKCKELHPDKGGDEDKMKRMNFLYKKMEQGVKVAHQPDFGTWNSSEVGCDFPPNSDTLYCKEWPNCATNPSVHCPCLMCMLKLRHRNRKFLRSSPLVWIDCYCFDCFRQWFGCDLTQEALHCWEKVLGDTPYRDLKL
UniProt P03082: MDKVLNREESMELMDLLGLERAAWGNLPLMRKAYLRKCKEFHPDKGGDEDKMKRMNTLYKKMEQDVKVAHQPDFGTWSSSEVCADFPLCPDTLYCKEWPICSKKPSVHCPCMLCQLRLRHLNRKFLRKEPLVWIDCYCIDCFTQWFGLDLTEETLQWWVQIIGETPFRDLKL
UniProt P30153: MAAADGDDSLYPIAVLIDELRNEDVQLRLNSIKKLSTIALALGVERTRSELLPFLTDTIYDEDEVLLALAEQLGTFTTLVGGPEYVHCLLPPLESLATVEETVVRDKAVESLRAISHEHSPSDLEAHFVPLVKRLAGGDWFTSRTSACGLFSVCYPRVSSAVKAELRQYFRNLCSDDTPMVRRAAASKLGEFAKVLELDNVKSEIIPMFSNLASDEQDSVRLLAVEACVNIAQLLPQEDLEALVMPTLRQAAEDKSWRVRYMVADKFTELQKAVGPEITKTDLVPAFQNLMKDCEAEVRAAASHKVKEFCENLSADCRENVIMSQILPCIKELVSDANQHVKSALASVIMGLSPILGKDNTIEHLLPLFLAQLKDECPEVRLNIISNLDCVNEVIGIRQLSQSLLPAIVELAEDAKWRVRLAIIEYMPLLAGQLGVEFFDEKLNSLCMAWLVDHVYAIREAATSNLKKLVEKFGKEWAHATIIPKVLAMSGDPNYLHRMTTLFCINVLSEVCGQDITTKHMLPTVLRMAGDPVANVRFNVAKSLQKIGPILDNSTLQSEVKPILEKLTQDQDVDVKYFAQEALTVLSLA
UniProt P67775: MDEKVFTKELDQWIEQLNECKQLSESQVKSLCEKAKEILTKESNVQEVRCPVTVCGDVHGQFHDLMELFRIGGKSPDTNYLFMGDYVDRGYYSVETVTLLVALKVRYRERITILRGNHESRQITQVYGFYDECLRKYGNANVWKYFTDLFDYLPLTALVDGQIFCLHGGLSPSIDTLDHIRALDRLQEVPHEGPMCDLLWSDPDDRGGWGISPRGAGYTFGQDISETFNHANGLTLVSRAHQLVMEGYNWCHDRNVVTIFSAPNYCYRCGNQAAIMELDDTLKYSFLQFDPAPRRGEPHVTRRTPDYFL
UniProt Q5VSL9: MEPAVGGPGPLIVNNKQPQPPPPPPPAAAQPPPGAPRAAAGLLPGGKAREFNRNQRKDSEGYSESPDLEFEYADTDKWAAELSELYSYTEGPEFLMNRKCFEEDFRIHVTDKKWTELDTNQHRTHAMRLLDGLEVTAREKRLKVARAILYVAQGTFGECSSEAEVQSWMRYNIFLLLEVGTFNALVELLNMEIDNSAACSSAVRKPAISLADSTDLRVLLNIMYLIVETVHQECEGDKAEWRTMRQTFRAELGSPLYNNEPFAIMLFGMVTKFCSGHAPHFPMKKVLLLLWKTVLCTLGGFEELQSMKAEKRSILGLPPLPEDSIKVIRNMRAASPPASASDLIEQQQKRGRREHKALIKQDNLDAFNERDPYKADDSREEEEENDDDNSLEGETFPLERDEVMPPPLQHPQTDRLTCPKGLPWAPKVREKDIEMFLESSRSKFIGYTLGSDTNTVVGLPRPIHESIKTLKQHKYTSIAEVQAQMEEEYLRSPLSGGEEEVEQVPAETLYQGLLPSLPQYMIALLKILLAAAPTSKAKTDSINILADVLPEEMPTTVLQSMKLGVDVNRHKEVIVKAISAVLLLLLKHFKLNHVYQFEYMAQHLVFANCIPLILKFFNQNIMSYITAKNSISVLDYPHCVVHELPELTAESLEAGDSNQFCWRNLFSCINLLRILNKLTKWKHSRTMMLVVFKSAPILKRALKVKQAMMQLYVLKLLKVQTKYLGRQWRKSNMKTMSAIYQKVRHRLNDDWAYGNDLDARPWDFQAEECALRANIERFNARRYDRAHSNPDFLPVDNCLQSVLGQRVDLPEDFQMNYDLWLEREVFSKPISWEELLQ
UniProt O95819: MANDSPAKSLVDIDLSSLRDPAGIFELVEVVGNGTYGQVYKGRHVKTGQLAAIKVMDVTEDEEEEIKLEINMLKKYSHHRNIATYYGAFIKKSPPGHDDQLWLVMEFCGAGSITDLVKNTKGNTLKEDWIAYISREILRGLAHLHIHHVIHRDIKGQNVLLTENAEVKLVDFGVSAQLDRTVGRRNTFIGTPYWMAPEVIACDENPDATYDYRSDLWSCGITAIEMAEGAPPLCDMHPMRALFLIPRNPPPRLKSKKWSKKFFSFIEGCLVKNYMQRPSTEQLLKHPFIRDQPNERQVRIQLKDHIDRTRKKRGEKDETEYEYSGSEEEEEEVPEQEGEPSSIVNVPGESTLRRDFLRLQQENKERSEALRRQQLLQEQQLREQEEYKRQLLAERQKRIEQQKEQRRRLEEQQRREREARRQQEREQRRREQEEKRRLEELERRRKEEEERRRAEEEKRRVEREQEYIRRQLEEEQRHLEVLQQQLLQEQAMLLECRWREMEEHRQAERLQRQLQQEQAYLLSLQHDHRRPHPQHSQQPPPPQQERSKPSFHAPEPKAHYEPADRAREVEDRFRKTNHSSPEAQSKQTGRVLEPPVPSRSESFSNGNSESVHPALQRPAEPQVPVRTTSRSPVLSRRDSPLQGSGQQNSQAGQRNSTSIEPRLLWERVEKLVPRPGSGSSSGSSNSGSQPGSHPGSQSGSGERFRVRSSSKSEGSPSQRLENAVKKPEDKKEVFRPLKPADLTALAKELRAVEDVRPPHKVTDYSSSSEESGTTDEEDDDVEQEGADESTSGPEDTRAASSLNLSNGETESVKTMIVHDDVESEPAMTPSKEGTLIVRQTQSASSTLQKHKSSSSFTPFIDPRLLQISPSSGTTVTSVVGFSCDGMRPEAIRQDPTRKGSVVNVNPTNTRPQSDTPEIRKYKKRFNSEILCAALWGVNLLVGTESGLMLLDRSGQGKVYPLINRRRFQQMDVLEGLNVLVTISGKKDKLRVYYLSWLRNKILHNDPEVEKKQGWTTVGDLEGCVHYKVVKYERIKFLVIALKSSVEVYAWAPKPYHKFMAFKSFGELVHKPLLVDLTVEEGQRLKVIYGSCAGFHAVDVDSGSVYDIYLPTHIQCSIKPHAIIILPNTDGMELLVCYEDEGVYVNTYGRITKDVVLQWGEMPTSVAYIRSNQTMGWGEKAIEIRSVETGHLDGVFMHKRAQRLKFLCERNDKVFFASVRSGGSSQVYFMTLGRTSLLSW

Results are given in words; binding and its absence hold for the method and conditions named. Binding seen in cells or lysates may run through a third protein. Some binding calls cover weakened binding; strength is not graded here.

Test [1] concerns the target SV40 Small T antigen, C-terminal Flag-HA (CTAP) tagged (SV40 (Macaca mulatta polyomavirus 1)) (UniProt P03081). The experiment in a line: co-IP; co-immunoprecipitation of CTAP-tagged SV40 ST wild-type and PP2A binding mutants in 293T cells; immunoblot for STRN3 and Aα. On the technique in general: Immunoblotting shows a protein as a band on a membrane.
In test [2] the target is JCPyV-Mad1 Small T antigen, C-terminal Flag-HA (CTAP) tagged (JC polyomavirus (JCPyV-Mad1)) (UniProt P03083). The test can be described thus: co-IP; HA-tag immunoprecipitation from lysates of HCT116 cells expressing CTAP (C-terminal Flag-HA) tagged STs; endogenous partners detected by immunoblot.
In test [3] the target is SV40 Small T antigen, C-terminal Flag-HA (CTAP) tagged (SV40 (Macaca mulatta polyomavirus 1)) (UniProt P03081). The test is described as above.
Test [4] has as its target BKPyV Small T antigen, C-terminal Flag-HA (CTAP) tagged (BK polyomavirus (BKPyV)) (UniProt P03082). The description is as above.
Test [5] deals with T1, STRN4, endogenous (human (endogenous in HEK TER, IMR90)) (UniProt Q9NRL3).
T1 sequence: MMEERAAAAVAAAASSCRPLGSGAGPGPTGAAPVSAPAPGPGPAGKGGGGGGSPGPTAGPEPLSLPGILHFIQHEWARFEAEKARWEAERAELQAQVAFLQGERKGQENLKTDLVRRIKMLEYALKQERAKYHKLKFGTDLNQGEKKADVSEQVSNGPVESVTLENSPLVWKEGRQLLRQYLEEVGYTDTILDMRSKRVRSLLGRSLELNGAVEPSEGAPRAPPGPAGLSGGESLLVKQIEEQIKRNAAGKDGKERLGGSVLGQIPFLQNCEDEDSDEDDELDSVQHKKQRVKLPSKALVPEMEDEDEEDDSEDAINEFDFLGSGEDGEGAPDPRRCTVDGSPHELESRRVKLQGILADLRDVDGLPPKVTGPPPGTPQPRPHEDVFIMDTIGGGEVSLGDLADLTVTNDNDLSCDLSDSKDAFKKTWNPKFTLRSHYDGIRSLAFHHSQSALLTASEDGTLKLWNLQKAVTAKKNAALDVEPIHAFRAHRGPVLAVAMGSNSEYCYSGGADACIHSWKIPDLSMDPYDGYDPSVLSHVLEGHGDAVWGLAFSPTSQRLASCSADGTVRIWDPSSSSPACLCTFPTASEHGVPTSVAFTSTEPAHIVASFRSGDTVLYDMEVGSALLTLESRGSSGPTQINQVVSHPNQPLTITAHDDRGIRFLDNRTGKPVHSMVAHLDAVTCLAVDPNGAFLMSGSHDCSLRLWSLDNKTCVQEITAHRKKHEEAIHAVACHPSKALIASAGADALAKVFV
The experiment in a line: co-IP; co-immunoprecipitation of endogenous STRN4, STRIP1, PP2A Cα and MAP4K4 in IMR90 cells expressing SV40 ST or GFP; immunoblot.

The target in test [6] is T1, STRN4, endogenous (human (endogenous in HEK TER, IMR90)). The experiment in a line: co-IP; IP of endogenous STRN3, STRN4, STRIP1 and MAP4K4 from HEK TER cells expressing ST or GFP, and from HEK TER ST cells with shSTRN4 or shLuc; beads washed with 300 mM NaCl lysis buffer; immunoblot.
Test [7] deals with T2, STRN3, endogenous (human (endogenous in HCT116, 293T, HEK TER)) (UniProt Q13033).
T2 sequence: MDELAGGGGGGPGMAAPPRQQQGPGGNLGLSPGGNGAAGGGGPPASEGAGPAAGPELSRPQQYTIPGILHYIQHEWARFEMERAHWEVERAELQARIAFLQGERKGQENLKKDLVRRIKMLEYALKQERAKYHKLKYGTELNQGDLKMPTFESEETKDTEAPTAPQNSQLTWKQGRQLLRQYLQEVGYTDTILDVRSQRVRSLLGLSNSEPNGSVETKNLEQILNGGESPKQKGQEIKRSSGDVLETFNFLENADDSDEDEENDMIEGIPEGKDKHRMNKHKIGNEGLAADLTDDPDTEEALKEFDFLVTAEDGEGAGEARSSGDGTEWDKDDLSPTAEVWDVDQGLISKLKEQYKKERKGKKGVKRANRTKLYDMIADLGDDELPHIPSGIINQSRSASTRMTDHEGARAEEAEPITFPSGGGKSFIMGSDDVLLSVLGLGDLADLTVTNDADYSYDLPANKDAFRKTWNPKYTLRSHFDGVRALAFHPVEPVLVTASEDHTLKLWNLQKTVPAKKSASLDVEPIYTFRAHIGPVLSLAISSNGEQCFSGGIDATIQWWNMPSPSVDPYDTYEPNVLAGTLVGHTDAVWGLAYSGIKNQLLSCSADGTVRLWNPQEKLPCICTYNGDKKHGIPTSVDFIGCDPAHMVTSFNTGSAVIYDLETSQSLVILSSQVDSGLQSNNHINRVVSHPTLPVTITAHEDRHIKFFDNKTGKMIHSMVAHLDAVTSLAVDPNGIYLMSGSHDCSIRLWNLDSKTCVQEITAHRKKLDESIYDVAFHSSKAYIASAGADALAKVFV
The description is as above.

Take “PP2A Aα subunit, endogenous (from UniProt P30153 1-589)”: the binding entry in test [1] was “binds”.

Regarding “PP2A C (catalytic) subunit, endogenous (from UniProt P67775 1-309)”, the binding result in test [2], in test [3], in test [4], in test [5] and in test [6] was “binds” in each case.

As for “STRIP1, endogenous (from UniProt Q5VSL9 1-837)”, the binding entry in test [2], in test [3] and in test [4] was “binds” each time.

In the case of “mitogen-activated protein kinase kinase kinase kinase 4 (MAP4K4), endogenous (from UniProt O95819 1-1239)”, the binding entry is recorded as “no binding” in test [2]; “binds” in test [3]; “no binding” in test [4]; “binds” in test [5]; “binds” in test [6]; “binds” in test [7].

B1: STRN3, endogenous (protein, UniProt Q13033 1-797)
chain: T2 sequence
With B1, the binding entry in test [2] and in test [4] was “binds” each time.
